Data from the supplement of paper PMC9588766.
Structures can show the parent of a compound that is named as a salt. ± gives the standard deviation of the averaged measurements. The full ranking holds about 2,000 compounds; the median of “cell viability relative to DMSO control (compound alone)” is about 0.98, and the lowest 2% start at about 0.23. The list shows a part of the results.

System: PDC-DUC18828
Assay: cell viability relative to DMSO control (compound alone) (fraction); PDC-DUC18828 is a patient-derived cholangiocarcinoma cell line; higher = less growth inhibition
Conditions: 1 µM; 72 h
Method: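 Selleck Bioactive library screen in the patient-derived FGFR2-G3BP2 fusion-positive ICC cell line PDC-DUC18828 (500 cells/well). Each compound was tested at 1 uM alone, in triplicate, for 72 h. Viability was read by CellTiter-Glo and normalised to plate DMSO controls.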

Row | SMILES | cell viability
1 | CC/C(=C(\c1ccc(O)cc1)c1ccc(OCCNC)cc1)c1ccccc1 [Endoxifen HCl] | 1.01 ± 0.035
2 | Cc1ccc(S(=O)(=O)Cc2nc(-c3ccc(C(=O)NCc4cccnc4)cc3)oc2C)cc1 | 0.366 ± 0.0015
3 | COc1cccc2c1C(=O)c1c(O)c3c(c(O)c1C2=O)C[C@@](O)(C(C)=O)C[C@@H]3O[C@H]1C[C@H](N)[C@H](O)[C@H](C)O1 [Daunorubicin HCl] | 0.0913 ± 0.011
4 | CNC(=O)c1ccccc1Nc1cc(Nc2ccc(N3CCOCC3)cc2OC)ncc1C(F)(F)F | 0.749 ± 0.023
5 | CNC(=O)c1cc(Oc2ccc(NC(=O)Nc3ccc(Cl)c(C(F)(F)F)c3)cc2)ccn1 [Sorafenib] | 1.05 ± 0.043
6 | CNC(=O)c1cc(Oc2ccc(NC(=O)Nc3ccc(Cl)c(C(F)(F)F)c3)cc2)ccn1 [Sorafenib Tosylate] | 1.03 ± 0.028
7 | CN(c1ccccc1CNc1nc(Nc2ccc3c(c2)CC(=O)N3)ncc1C(F)(F)F)S(C)(=O)=O | 0.79 ± 0.028
8 | CCN(CC)CC(=O)Nc1c(C)cccc1C [Lidocaine] | 1.01 ± 0.012
9 | CC(=O)c1cc2c(o1)C(=O)c1ccccc1C2=O [Napabucasin] | 0.0105 ± 0.00081
10 | CC(C=CC(=O)NO)=CC(C)C(=O)c1ccc(N(C)C)cc1 (stereo not drawn) [Trichostatin A (TSA)] | 0.15 ± 0.018
11 | c1ccc2c(CC3=NCCN3)cccc2c1 [Naphazoline HCl] | 1.02 ± 0.026
12 | CC(=O)OCC(=O)[C@@]12OC(C)(C)O[C@@H]1C[C@H]1[C@@H]3C[C@H](F)C4=CC(=O)C=C[C@]4(C)[C@@]3(F)[C@@H](O)C[C@@]12C [Fluocinonide] | 0.958 ± 0.054
13 | COc1nc(OCc2cccc(-c3ccccc3)c2C)ccc1CNCCNC(C)=O [PD-1/PD-L1 inhibitor 2] | 0.968 ± 0.021
14 | CCC(C)(Oc1ccc(C2(c3ccc(OC(C)(CC)C(=O)O)cc3)CCCCC2)cc1)C(=O)O (stereo not drawn) [Clinofibrate] | 1.05 ± 0.032
15 | C[C@@H](O[C@H]1OCCN(Cc2nn(P(=O)(O)O)c(=O)[nH]2)[C@H]1c1ccc(F)cc1)c1cc(C(F)(F)F)cc(C(F)(F)F)c1 [Fosaprepitant dimeglumine salt] | 0.94 ± 0.03
16 | CNc1cc(-c2cccc(Cl)c2Cl)nc(N)n1 | 0.817 ± 0.067
17 | c1nc2c(NC3CCCCC3)nc(Nc3ccc(N4CCOCC4)cc3)nc2[nH]1 [Reversine] | 0.719 ± 0.042
18 | COc1cc2nccc(Oc3ccc(NC(=O)NC4CC4)c(Cl)c3)c2cc1C(N)=O [Lenvatinib (E7080)] | 0.844 ± 0.025
19 | CC(C)(CO)c1cc2cc(NC(=O)C3(c4ccc5c(c4)OC(F)(F)O5)CC3)c(F)cc2n1C[C@@H](O)CO | 0.986 ± 0.054

Row | SMILES | cell viability
20 | Cc1c(CN2CCN(C(=O)[C@H](C)O)CC2)sc2c(N3CCOCC3)nc(-c3cnc(N)nc3)nc12 | 0.616 ± 0.053
21 | CN1CCc2c(c3ccccc3n2Cc2ccc(C(=O)NO)cc2)C1 [Tubastatin A HCl] | 1.03 ± 0.079
22 | CN1CCc2c(c3ccccc3n2Cc2ccc(C(=O)NO)cc2)C1 [Tubastatin A] | 0.954 ± 0.032
23 | CC[C@@H]1C(=O)OC[C@@H]1Cc1cncn1C [Pilocarpine HCl] | 0.988 ± 0.026
24 | CS(=O)(=O)OCCCCOS(C)(=O)=O [Busulfan] | 1.02 ± 0.054
25 | O=C(/C=C/c1ccc(O)cc1)c1ccc(O)cc1O [Isoliquiritigenin] | 0.922 ± 0.031
26 | N#Cc1ccc(-c2csc(NN=C3CCCC3)n2)cc1 [Remodelin] | 0.973 ± 0.083
27 | N#CCNC(=O)c1ccc(-c2ccnc(Nc3ccc(N4CCOCC4)cc3)n2)cc1 | 0.906 ± 0.048
28 | OCc1c[nH]c2ccccc12 [Indole-3-carbinol] | 0.874 ± 0.059
29 | Cc1ncc(-c2ccnc(Nc3ccc(S(C)(=O)=O)cc3)n2)n1C(C)C | 0.88 ± 0.032
30 | Cc1ccc(=O)n(-c2ccccc2)c1 [Pirfenidone] | 1.01 ± 0.033
31 | COc1ccc(C2CC(=O)c3c(O)cc(OC4OC(COC5OC(C)C(O)C(O)C5O)C(O)C(O)C4O)cc3O2)cc1OC (stereo not drawn) [Methyl-Hesperidin] | 0.962 ± 0.071
32 | CN(C)C(=O)[C@H](O)[C@H](Cc1ccccc1)NC(=O)c1cc2cc(Cl)ccc2[nH]1 | 0.927 ± 0.066
33 | O=C(Oc1cc(S(=O)(=O)c2ccccc2)ccc1[N+](=O)[O-])c1ccc(Cl)cc1 | 0.984 ± 0.087
34 | Cc1cc(CN2CCN(c3c(Br)cnc4nc(-c5ccc(N6CCN(C)CC6)cc5)[nH]c34)CC2)no1 | 0.805 ± 0.054
35 | CCN1CCN(Cc2ccc(C(=O)Nc3ccc(C)c(Oc4ccc5c(c4)CC(=O)N5)c3)cc2C(F)(F)F)CC1 | 0.989 ± 0.056
36 | N[C@@H](Cc1cc(I)c(Oc2ccc(O)c(I)c2)c(I)c1)C(=O)O [Liothyronine Sodium] | 0.92 ± 0.053
37 | COCCCN1CCC(NC(=O)c2cc(Cl)c(N)c3c2OCC3)CC1 [Prucalopride] | 0.942 ± 0.069
38 | COCCCN1CCC(NC(=O)c2cc(Cl)c(N)c3c2OCC3)CC1 [Prucalopride Succinat] | 0.935 ± 0.029
